# Data published in PubChem BioAssay AID1346428 (National Center for Advancing Translational Sciences (NCATS), 2018).
# “And” between values parts separate entries of the source, which are not always exact repeats. Equal entries are not always repeated. Among all 48,000 compounds or so, about 1,200 (2.5%) were called active. Not shown: some 2% with an inconclusive outcome.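 How the source made its calls: active means activation of at least 60% and not above a set upper limit (about 1 call in 100 departs from these limits); inconclusive means activation of 40% to 60%, or above that upper limit; inactive means activation under 40%.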 Some of the results follow.
# Biological target: Probable G-protein coupled receptor 32 (Homo sapiens) (UniProt O75388)
# Assay: qHTS for Agonists of Human Resolvin D1 Receptor DRV1; further: 0% is about no effect
# Conditions: CHO-K1 GPR32 beta-arrestin PathHunter luminescence, 90 min; at 76.9 µM; stronger effect = higher value; zero percent set by DMSO-only wells
# Method in brief: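 Luminescent readout of beta-Gal complementation quantifies ligand-induced beta-arrestin association with GPR32 in CHO-K1 cells; 90 min compound incubation at 37 °C, detection 1 h at room temperature.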
# Chain of UniProt O75388 (O75388 whole entry, looked up): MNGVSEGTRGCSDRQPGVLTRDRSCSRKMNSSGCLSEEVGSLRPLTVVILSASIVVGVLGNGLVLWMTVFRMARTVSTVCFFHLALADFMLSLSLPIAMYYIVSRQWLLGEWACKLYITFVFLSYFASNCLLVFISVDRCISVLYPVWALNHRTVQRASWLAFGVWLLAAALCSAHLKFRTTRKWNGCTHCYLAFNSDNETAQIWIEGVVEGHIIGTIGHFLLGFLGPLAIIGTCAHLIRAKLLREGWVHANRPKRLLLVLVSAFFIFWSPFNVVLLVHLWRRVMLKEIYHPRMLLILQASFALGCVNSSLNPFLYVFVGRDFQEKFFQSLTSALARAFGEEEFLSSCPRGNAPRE
row,SMILES,activation
1,Cc1cccc(C(=O)Nc2ccc3oc(-c4ccncc4)nc3c2)c1,active: 72%
2,CCCCCn1cc2c(c1-c1ccc(Cl)cc1)c(=O)n(C)c(=O)n2C,inactive: -17.1%
3,COc1ccc2c(c1)C=C(C(=O)NCc1cc(Br)ccc1OC)CO2,inactive: -26.8%
4,COC(=O)c1ccccc1NC(=O)Cn1c(=O)n(CCCC(=O)NCCc2ccc(OC)c(OC)c2)c(=O)c2ccccc21,inactive: 8.45%
5,Cc1cc(C)c(NC(=O)CCC(=O)N2Cc3ccccc3Oc3ncccc32)c(C)c1,inactive: 1.35%
6,COc1ccc(Nc2cc(C)c3cc(NC(=O)c4cc(OC)cc(OC)c4)ccc3n2)cc1,inactive: -8.87%
7,Cc1ccc(C)c(NC(=O)NCc2ccc3c(c2)CCN3C(=O)c2ccccc2)c1,inactive: 11%
8,C[N+](C)(C)CC=O,inactive: -3.34%
9,COc1ccc(S(=O)(=O)NCc2ccc(C(=O)NCc3ccccc3)cc2)cc1,inactive: 12.8%
10,CCCOc1ccc(C2c3c(oc4ccccc4c3=O)C(=O)N2c2nc(C)c(C(=O)OCC)s2)cc1 (stereo not drawn),inactive: -11.5%
11,CC(=O)c1ccc(N2CCN(C(=O)c3ccc(Cn4c(=O)[nH]c5ccccc5c4=O)cc3)CC2)cc1,inactive: -6.51%
12,CCN1CCC(N(Cc2ccc(F)cc2)C(=O)Nc2cc(Cl)ccc2C(=O)OC)CC1,inactive: 31.9%
13,Cc1ccc2c(c1)-c1c(cnn1CC(=O)N1CCN(c3cc(Cl)ccc3C)CC1)CO2,inactive: -12.2%
14,O=C(c1ccccc1)c1ccc2nc(Nc3cc(Cl)ccc3O)c3nncn3c2c1,inactive: -14.3%
15,CC(C)C(NS(=O)(=O)c1cccc2cccnc12)C(=O)Nc1ccc(OC(F)(F)F)cc1 (stereo not drawn),inactive: -21.9%
16,OC[C@H]1O[C@@H](n2cnc3c(NC4CCCC4)ncnc32)[C@H](O)[C@@H]1O,inactive: 7.85%
17,CCOc1ccc(-c2cn3c(n2)sc2cc(C(=O)NC4CCCc5ccccc54)ccc23)cc1 (stereo not drawn),inactive: -0.868%
18,Cc1ccc(NC(=O)CC(C)S(=O)(=O)c2ccc3c(c2)NC(=O)CO3)cc1C (stereo not drawn),inactive: 29.1%
19,O=S(=O)(c1ccc2nc(N3CCN(c4ccccc4)CC3)ccc2c1)N1CCCCC1,inactive: -12.9%
20,COc1ccc(-c2noc(-c3cccc(OC)c3OC)n2)cc1,inactive: -5.32%
21,COc1ccc2c(CNCCc3ccccc3)c(C(=O)O)n(Cc3cccc(F)c3)c2c1,inactive: -20%
22,Cc1cccc(NC(=O)CSc2nc3c(oc4ccccc43)c(=O)n2-c2ccc(F)cc2)c1,inactive: 7.23%
23,COc1ccc(Nc2cc(C(=O)NCc3ccccc3)c3ccccc3n2)c(OC)c1,inactive: -31.3%
24,COc1ccc(N(Cc2cccs2)C(=O)COc2cc(C)c(Cl)c(C)c2)cc1,inactive: -12.5%
25,CCOc1ccc2nc(NC(=O)c3cc(=O)c4cc(C)cc(C)c4o3)sc2c1,inactive: 16.3%
26,COc1ccc(NC(=O)c2cn3c4c(ccc(Cl)c4c2=O)OC(C)C3)cc1OC (stereo not drawn),inactive: 21.4%
27,CSc1ncc(C(=O)Nc2ccc(C(C)=O)cc2)c(-c2ccccc2)n1,inactive: -2.7%

row,SMILES,activation
1,COc1ccc(Cl)cc1NC(=O)Cn1cc2c(n1)CCC(C)C2 (stereo not drawn),inactive: 6.11%
2,Cc1cccc(NC(=O)Cc2ccc(-n3c(C)nc4cccnc43)cc2)c1C,inactive: 7.58%
3,O=c1c2cnn(-c3ccc(F)cc3)c2ncn1Cc1ccc(F)cc1,inactive: 0.601%
4,COc1ccc(CNC(=O)C2Cc3cc(S(=O)(=O)N4CCCCCC4)ccc3N2C(C)=O)cc1 (stereo not drawn),inactive: -19.7%
5,CSc1nnc2[nH]c(=O)cc(C)n12,inactive: 1.57%
6,Cc1cc(-c2ccc(S(=O)(=O)Nc3ccc(Br)c(C)c3)s2)on1,inactive: -1.71%
7,CCOc1ccc2oc(=O)cc(CN3CCN(c4ccccc4)CC3)c2c1,inactive: -21.4%
8,N#Cc1c[nH]n2c(NC3CCCCC3)c(-c3cccc(Cl)c3)nc12,inactive: -13.6%
9,COc1ccc(CNC(=O)c2ccc(-c3nc(CSc4ccccc4)c(C)o3)cc2)c(OC)c1,inactive: 0.989%
10,CC(=O)c1cccc(NC(=O)c2cc3nc(-c4ccc(Br)cc4)cc(C(F)(F)F)n3n2)c1,inactive: -37%
11,CCc1ccc(NC(=O)c2cc3c([nH]c2=O)CC(C)(C)CC3=O)cc1,inactive: 0.691%
12,COc1ccc(CCN2C(=O)N(c3ccccc3)C(=O)C2CC(=O)Nc2ccccc2)cc1 (stereo not drawn),inactive: -0.377%
13,Cc1ccc(-c2nc(C)c(CCNC(=O)C(=O)Nc3ccc4c(c3)OCO4)s2)cc1,inactive: -1.75%
14,CCCN1C(=O)C2(c3ccccc31)c1c(oc3ccc(C)cc3c1=O)C(=O)N2CCOC (stereo not drawn),inactive: 3.99%
15,CCOC(=O)C1CCN(CCC(=O)Nc2ccc(OC)cc2)CC1,inactive: -16.3%
16,COc1cc(C(=O)N2CC(=O)Nc3ccc(C)cc3C2c2ccc(F)cc2)cc(OC)c1OC (stereo not drawn),inactive: -0.459%
17,Cc1nc(N2CCOCC2)c2c(C(=O)N3CCN(c4cccc(C)c4C)CC3)c(C)oc2n1,inactive: -23.3%
18,Cc1ccc(-n2nc3c(N4CCCC(C(=O)NCCc5ccccc5)C4)nnc(C)c3c2C)cc1 (stereo not drawn),inactive: -7.25%
19,Cc1ccc(CNC(=O)Cn2ccn(-c3ccc(C)c(C)c3)c(=O)c2=O)cc1,inactive: -1.35%
20,CN(C)c1ccc(CNC(=O)CN(C)S(=O)(=O)c2ccc3c(c2)c(=O)n(C)c(=O)n3C)cc1,inactive: -3.52%
21,Cc1ccc(CNC(=O)CN(c2ccc(Cl)cc2Cl)S(=O)(=O)c2ccccc2)cc1,inactive: -12.1%
22,C1COC(NC(C2CC2)C2CC2)=N1,inactive: -2.25% and inactive: -11%
23,Cc1ccc(CCNC(=O)Cn2c(-c3cccs3)cc3cc(F)ccc32)cc1,inactive: 32.8%
24,CCc1cccc2sc(N3CCN(C(=O)c4cc5ccccc5cc4OC)CC3)nc12,inactive: -17.9%
25,COc1cccc(C(=O)Nc2c(C(=O)NC(C)(C)C)oc3ccccc23)c1,inactive: -16.9%
26,CCc1cccc(NC(=O)Cn2c(=O)n(CCc3ccc(OC)c(OC)c3)c(=O)c3ccccc32)c1,inactive: -2.52%
